In all, about 410,000 compounds went through this assay and about 6,400 (1.6%) were called active. The shares of active, inactive and inconclusive entries below differ from those in the screen. Calls come from the whole dose curve; as a rule, active = well fitted inhibition curve with a large enough effect; inconclusive = small, poorly fitted or top-dose-only effect; inactive = no such curve, though single readings can be large or run the other way. Potencies of inconclusive entries are doubtful fits and often do not repeat.
Each compound was assayed against Glucagon-like peptide 1 receptor (Homo sapiens) (UniProt P43220) (assay: qHTS of GLP-1 Receptor Inverse Agonists (Inhibition Mode)). Settings: HEK293 GLP-1R CRE-luciferase, luminescence, 24 h, GLP-1R form is constitutively active; activity change, negative = inhibition: at 38.3 µM (top of the series) unless noted.
UniProt P43220, sequence (P43220 whole entry, looked up): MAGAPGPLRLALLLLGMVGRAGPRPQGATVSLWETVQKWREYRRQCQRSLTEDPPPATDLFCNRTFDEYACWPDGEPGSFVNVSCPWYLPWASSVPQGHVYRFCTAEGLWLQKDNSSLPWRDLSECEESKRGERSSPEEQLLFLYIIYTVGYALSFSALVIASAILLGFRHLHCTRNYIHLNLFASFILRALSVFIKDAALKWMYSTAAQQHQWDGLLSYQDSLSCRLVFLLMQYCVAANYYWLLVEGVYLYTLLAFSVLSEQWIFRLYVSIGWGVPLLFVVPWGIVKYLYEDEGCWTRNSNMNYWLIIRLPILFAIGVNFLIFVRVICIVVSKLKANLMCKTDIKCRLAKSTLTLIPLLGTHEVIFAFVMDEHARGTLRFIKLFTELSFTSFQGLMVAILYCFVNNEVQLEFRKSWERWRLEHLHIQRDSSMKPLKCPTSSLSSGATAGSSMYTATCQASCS
Outline: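 Assay principle: reduced luminescence from a cAMP-responsive reporter in HEK293 cells co-expressing a constitutively active GLP-1R. Conditions: 24 hr compound incubation, 37 deg C, 5% CO2.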
% is set by controls: 0 for no effect and ±100 for the full control effect; potency is the fitted concentration of half-maximal effect; tags give direction and shape of the fitted curve.
Note: nearly all actives have a fitted effect of over 55% in size.

Potency, inconclusive:
CN(C(=S)Nc1ccc(F)cc1)C(c1ccccc1)c1ccccc1 5.62 µM [inhibitor, partial curve, poor fit]
CC(C)(C)OC(=O)N1CCC(c2c(C(=O)NCc3ccco3)cnn2-c2ccc(F)cc2)CC1 7.08 µM [inhibitor, partial curve, poor fit]
Clc1ccc(CN2CCSCC2)cc1Cl 11.2 µM [inhibitor, single point]
O=C(CSc1nnc(-c2ccncc2)n1Cc1ccco1)Nc1nc(-c2ccccc2)cs1 12.6 µM [inhibitor, single point]
CCNc1nc(NC(C)C)nc(Oc2ccc(OCCOc3ccc(C)cc3)nn2)n1 3.98 µM [inhibitor, partial curve, poor fit]
COc1ccc(OCC(=O)Nc2ccc(N3CCN(C(=O)c4ccccc4C)CC3)cc2)cc1 2.24 µM [inhibitor, full curve, poor fit]
Fc1cccc(-c2cncc(N3CCN(CCN4CCCC4)CC3)n2)c1 11.2 µM [inhibitor, partial curve, poor fit]
Oc1ccc(Br)cc1-c1cc(-c2ccccc2F)[nH]n1 14.1 µM [inhibitor, partial curve, poor fit]
O=C(CSc1cn(CCNC(=O)c2ccccc2)c2ccccc12)NCC1CCCO1 (stereo unspecified) 5.62 µM [inhibitor, partial curve, poor fit]
CCSc1nnc(NC(=O)C(CC)(C(F)(F)F)C(F)(F)F)s1 7.08 µM [inhibitor, partial curve, poor fit]
O=C(Nc1cccc(-c2cccc(Cl)c2)c1)C1CCN(Cc2ccccn2)CC1 17.8 µM [inhibitor, partial curve, poor fit]
Cc1cc(NC(=O)c2cccc(Oc3ccccc3)c2)n[nH]1 28.2 µM [inhibitor, single point]
CCCNC(=O)Cc1c(OC)ccc2cc(Br)ccc12 28.2 µM [inhibitor, single point]
CC(C)(C)c1nnc(NC(=O)c2cc(-c3ccccc3)nc3ccccc23)s1 5.62 µM [inhibitor, full curve, poor fit]
Clc1ccc(-c2cc(CSc3cccc(Cl)c3)on2)cc1 28.2 µM [inhibitor, single point]
O=C(CSCc1c(F)cccc1Cl)NCCSCc1ccco1 28.2 µM [inhibitor, single point]
COC(=O)[C@@]12C[C@@H](CC(=O)NCc3ccc(C)o3)C(=O)N(Cc3cccc4ccccc34)C1=CCC(C)(C)C2 10 µM [inhibitor, partial curve, poor fit]
O=C(NCc1cccc(Br)c1)c1cccn1-c1nnc(N2CCCCC2)s1 12.6 µM [inhibitor, single point]
O=C(NCCCc1ccccc1)C1CCC(=O)N(Cc2ccc(Cl)cc2)C1 (stereo unspecified) 20 µM [inhibitor, single point]
COc1cccc(NC(=O)c2ccc(S(=O)(=O)N3CCCCC3)cc2)c1 10 µM [inhibitor, partial curve, poor fit]
COc1ccc(CCNC(=S)N2CCN(S(=O)(=O)c3ccc(C)cc3)CC2)cc1 31.6 µM [inhibitor, partial curve, poor fit]
Cn1nnnc1N=N/C(=N/Nc1ccccc1)c1ccccc1 1.78 µM [inhibitor, full curve, poor fit]
Cc1ccc(Cl)cc1N1CCN(C(=O)Cn2cnc3nc4c(cc3c2=O)CCCC4)CC1 8.91 µM [inhibitor, partial curve]
O=C(/C=C/c1ccc(OCc2ccccc2)c(OCc2ccccc2)c1)c1cccnc1 31.6 µM [inhibitor, partial curve, poor fit]
COc1ccc(C(=O)OCC(=O)Nc2cccc(S(=O)(=O)N3CCCCCC3)c2)cc1[N+](=O)[O-] 10 µM [inhibitor, single point]
Nc1ccccc1-c1ccc([N+](=O)[O-])cc1 5.62 µM [inhibitor, full curve]
CCCN1C(=O)/C(=C/C=C2\N(CC)c3ccccc3C2(C)C)SC1=S 0.316 µM [inhibitor, full curve, poor fit]
CCOC(=O)c1cc(NC(=O)CN2CCCC2)cc(C(=O)OCC)c1 22.4 µM [inhibitor, single point]
CCOc1ccc(N(CC(=O)NC2CCCCC2)C(=O)Cn2nnc(-c3ccc(C)o3)n2)cc1 31.6 µM [inhibitor, partial curve, poor fit]
Cc1c(OC(C)C(=O)NC2CC(C)(C)NC(C)(C)C2)ccc2c3c(c(=O)oc12)CCC3 (stereo unspecified) 22.4 µM [inhibitor, single point]

Potency, active:
CC(C)(C)NC(=O)NC(=O)COc1ccc(Br)cc1Br 10 µM

Activity change, negative = inhibition, inactive:
Cc1ccc(-n2ncc(C(=O)N3CCN(Cc4ccccc4)CC3)c2C2CCN(C(=O)OC(C)(C)C)CC2)c(C)c1 6.11%
CCOc1ccc(NC(=O)c2ccc(NC(=S)NC3CC3)cc2)cc1 0.849%
CC(C)(C)n1nnnc1C(c1ccnc2ccccc12)N1CCN(C/C=C/c2ccccc2)CC1 (stereo unspecified) -11%
Cc1cc(=O)[nH]c(N/N=C/c2cn(CCC#N)nc2-c2ccccc2)n1 93.2%
Cc1nc(SCC(=O)Nc2c(C)n(C)n(-c3ccccc3)c2=O)nc(C)c1C 3.86%
COc1ccc(OC)c(NC(=O)c2ccc3c(c2)c(C)c(C)n3Cc2ccc(F)cc2)c1 -20.3%
CC(CN1CCCCC1)OC(=O)Cc1ccc(Cl)cc1 (stereo unspecified) 0.253%
O=C(CSc1nnnn1C1CCCC1)Nc1cccc(NC(=O)c2ccco2)c1 -22.7%
CC1(C(=O)Nc2cccc3ncccc23)CCN1C(=O)Cc1ccc(-c2ccccc2)cc1 (stereo unspecified) -6.62%
Cc1ccc(NC(=S)N2CCCCCC2)cc1 -15%
